# The whole screen tested about 45,000 compounds, of which about 200 (0.44%) were called active. Another 7% or so got no clear call; they are omitted. The call rests on the fitted dose curve; in most records, active means well fitted activation curve with a large enough effect; inconclusive means small, poorly fitted or top-dose-only effect; inactive means no such curve, though single readings can be large or run the other way. The list shows a part of the results.
# Assay: qHTS of TDP-43 Inhibitors: NCGC Sytravon Library Screen; further: 0% is about no effect; nearly all actives have a fitted effect of over 55% in size
# Settings: yeast TDP-43 toxicity rescue, BacTiter-Glo growth, 24 h; series mostly up to 46.1 µM; growth rescue (activation): at the top concentration
# Summary of the method: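 TDP-43-expressing yeast, pregrown in raffinose, seeded at OD600 0.02 in galactose medium with compound for 24 hr at 30 deg C. Growth read by BacTiter-Glo luminescence, so rescue of toxicity appears as activation.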
row,SMILES,growth rescue (activation)
1,COc1ccc(NC(=O)c2cccc3c(-c4ccc(OC)cc4C)coc23)cc1,inactive: 26%
2,CCOc1ccccc1CNC(=O)c1oc2ccc3c(c2c1C)C(=O)CC(C)(C)O3,inactive: 14.4%
3,CC(C)COCc1ccc(O)c2ncccc12,inactive: 14.8%
4,Cc1cccc(OCC(=O)N/N=C/c2ccc(N(C)C)cc2)c1,inactive: 7%
5,Cc1cccc(CC2S/C(=N/c3cccc(C)n3)NC2=O)c1 (centres undefined),inactive: -1.14%
6,CC(=O)c1cccc(CN2CCCC(C(=O)c3ccc4c(c3)OCO4)C2)c1 (centres undefined),inactive: 2.96%
7,NS(=O)(=O)c1ccc(CCNC(=O)c2ccc(OCC3CCCO3)cc2)cc1 (centres undefined),inactive: -0.814%
8,CCOC(=O)C1(Cc2cccc(OC)c2)CCN(Cc2csc(C(C)=O)c2)CC1,inactive: -6.69%
9,Cc1ccnc(NC(=O)c2cccc(OC(F)F)c2)n1,inactive: -7.01%
10,O=C(Cc1ccccc1)Nc1ccc(N2CCOCC2)cc1,inactive: -7.18%
11,CCc1nc2c(OCc3ccc(C(=O)OC)cc3)cccn2c1N(C)C(=O)c1ccc(OC)cc1,inactive: -6.07%
12,O=C(NC1CCCC1)C(c1ccncc1)N(C(=O)Cc1cccs1)c1cccc(F)c1 (centres undefined),inactive: 4.13%
13,O=C(Nc1ccc(OCCO)cc1)c1csc([C@@H]2C[C@H](O)[C@@H](CO)O2)n1,inactive: 4.28%
14,O=C(Nc1ccc2c(c1)CCC2)c1c(F)cccc1Cl,inactive: 7.77%
15,COC(=O)CCCCCCCCC(O)CN1CCCCC1 (centres undefined),inactive: 5.71%
16,O=C(O)c1ccc2c(c1)C(=O)N(CCCCCCCN1C(=O)c3ccc(C(=O)O)cc3C1=O)C2=O,inactive: 8.05%
17,COc1cc(OC)cc(-c2noc(-c3csc([C@H]4C[C@H](O)[C@@H](CO)O4)n3)n2)c1,inactive: -2.88%
18,COc1ccc2c(C)cc(SCC(=O)NC3CCCCC3)nc2c1,inactive: -17.7%
19,O=[N+]([O-])c1ccc(OCC(O)CNC2CCCC2)cc1 (centres undefined),inactive: 11%
20,CCOC(=O)c1ccccc1NC(=O)c1cccc([N+](=O)[O-])c1,inactive: 5.29%
21,CCCOC(=O)c1c(NC(=O)C2C3C=CC(C3)C2C(=O)O)sc2c1CCC(C)C2 (centres undefined),inactive: -7.57%
22,COc1cc(/C=N/NC(=O)C(=O)NCc2ccco2)cc(Br)c1O,inactive: 6.45%
23,CC(/C=N/NC(=O)Cn1cnc2c1c(=O)n(C)c(=O)n2C)=C\c1ccccc1,inactive: 16.2%
24,C/C(=N\NC(=O)c1cc(C)oc1C)c1ccc2ccccc2c1,inactive: 16.3%
25,O=C(NCc1ccncc1)C1CCCN1S(=O)(=O)c1ccc(Cl)cc1 (centres undefined),inactive: 4.52%
26,CCN(C(C)=O)c1nc(CCl)cs1,inactive: 16.2%
27,CCCOc1ccc(C2=CSC3=NCCN23)cc1[N+](=O)[O-],inactive: 8.94%

row,SMILES,growth rescue (activation)
1,CC(CCc1ccccc1)NC(=O)c1ccccc1C(=O)O (centres undefined),inactive: 2.42%
2,COc1ccc(NC(=O)Nc2nnc(-c3ccccc3F)s2)cc1,inactive: 11.5%
3,COc1cc(C(C(=O)NC2CCCCC2)N(C(=O)Cc2c[nH]c3ccccc23)c2ccccc2C)cc(OC)c1OC (centres undefined),inactive: 23.6%
4,Cc1cc([N+](=O)[O-])nn1CC(=O)NCCCN1CCOCC1,inactive: -3.37%
5,CCn1cc(C(=O)O)c(=O)c2cnc(N3CCN(C(=S)NC(=O)c4ccc(OC)cc4)CC3)nc21,inactive: 4.73%
6,CCc1nnc(NC(=O)CCN(c2ccc(C)cc2)S(=O)(=O)c2ccccc2)s1,inactive: 17%
7,Cc1cc(C)cc(-n2nnn(C3C/C(=N/NC(N)=S)C4OCC3O4)c2=S)c1 (centres undefined),inactive: 15.2%
8,O=C(NCc1cccnc1)c1csc([C@@H]2O[C@H](CO)[C@H](O)[C@H](O)[C@H]2O)n1,inactive: -0.177%
9,Cc1cc(C(=O)NC(Cc2ccccc2)C(=O)O)c(C)o1 (centres undefined),inactive: -2.19%
10,O=Cc1cnc(N2CCN(c3ccccc3)CC2)s1,inactive: -2.36%
11,Cc1ccccc1NC(=O)CSc1nc2scc(C)c2c(=O)[nH]1,inactive: -9.86%
12,Cc1cc(C(=O)N2CCC2(C)C(=O)NCCC#N)nn1C (centres undefined),inactive: 5.82%
13,CCCC(=O)OC1CCS(=O)(=O)c2sccc21 (centres undefined),inactive: -1.06%
14,CCc1cccc(C)c1NC(=O)COC(=O)Cc1ccsc1,inactive: -12.9%
15,COc1ccc(CC(NC(C)=O)C(=O)NC2CCN(S(=O)(=O)c3ccc(NC(C)=O)cc3)CC2)c(OC)c1 (centres undefined),inactive: 0.571%
16,C=CCS/C(=N\n1cnc2ccccc2c1=O)N(CC)CC,inactive: 3.08%
17,O=C(CNC(=O)c1ccco1)NNC(=O)c1n[nH]c(=O)c2ccccc12,inactive: 10.7%
18,Cc1ccc(C(=O)O)cc1NC(=O)C1CCN(S(=O)(=O)c2ccc3c(c2)OCCO3)CC1,inactive: -1.31%
19,CCN(CC)C(=O)c1ccc(COc2ccccc2Cl)o1,inactive: 26%
20,CCOc1ccc(Cn2c3ccc(OC)cc3c3nc4ccccc4nc32)cc1,inactive: 7.25%
21,CCOC(=O)c1ccc(NC(=O)c2cc3c(s2)CCC3)cc1,inactive: -5.34%
22,COc1ccc(C(O)(CCc2ccccc2)CCN2CCCCC2)cc1 (centres undefined),inactive: -3.07%
23,COc1ccc(-c2nc(CN3CCC(c4ccccc4)CC3)c(C)o2)cc1OC,inactive: 16.6%
24,CC1CCCCN1Cc1ccc(-c2nn[nH]n2)cc1 (centres undefined),inactive: 21.2%
25,CCC(C)(C)NC(=O)C(c1ccncc1)N(Cc1cccs1)C(=O)Cn1nnc2ccccc21 (centres undefined),inactive: -16.2%
26,COc1ccc(NC(=O)N2C3CCCC2CC(NC(=O)c2ccccc2)C3)cc1 (centres undefined),inactive: 20.3%
27,CCCC1=Nc2cc(C(=O)NCCOC)ccc2Sc2ccccc21,inactive: 7.39%

# — PubChem BioAssay AID1347073 (National Center for Advancing Translational Sciences (NCATS), 2019)
